PubChem BioAssay AID588855 (National Center for Advancing Translational Sciences (NCATS), 2011)
Hit rate of the full screen: of about 410,000 compounds, about 5,000 (1.2%) were called active. Inconclusive results, whose numbers are uncertain, are shown with a selection of clear calls. Calls come from the whole dose curve; as a rule, active = well fitted inhibition curve with a large enough effect; inconclusive = small, poorly fitted or top-dose-only effect; inactive = no such curve, though single readings can be large or run the other way. Where the call is inconclusive, the potency comes from a doubtful curve fit.

Assay: qHTS for Inhibitors of TGF-b; note: nearly all actives have a fitted effect of over 65% in size
Settings: HepG2 CAGA-GFP TGF-b/SMAD3 reporter, GFP fluorescence, 18 h, TGF-beta stimulated, 500 pg/mL final; series mostly up to 46.1 µM
Outline: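 First, reporter cells (HEPG2 CAGA-GFP) rested 2 h at 37 degrees C. Next, compounds were pinned in and TGF-beta added to 500 pg/mL final. After 18 h, GFP was imaged per cell and summed per well.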
Potency is the fitted concentration of half-maximal effect; tags give direction and shape of the fitted curve.

| Compound | Potency |
| --- | --- |
| Cc1ccc(S(=O)(=O)N2CCC(C(=O)Nc3nnc(-c4ccco4)s3)CC2)cc1 | inconclusive: 6.31 µM [inhibitor, single point] |
| O=C1c2ccccc2NC(c2ccc(O)cc2)N1Cc1ccco1 (stereo not drawn) | inactive |
| COc1cccc(CNC(=O)C2CCC(=O)N(C3CC3)C2)c1OC (stereo not drawn) | inactive |
| O=C(CNc1cccc(Cl)c1)c1ccc(Cl)cc1 | inconclusive: 35.5 µM [inhibitor, single point] |
| COc1cc(OC)cc(C(=O)NC(C(=O)N2CCc3ccccc3C2)C(C)C)c1 (stereo not drawn) | inactive |
| CCC(C)N(C(=O)CSc1nc(-c2cccs2)nc2ccccc12)C1CCS(=O)(=O)C1 (stereo not drawn) | inconclusive: 28.2 µM [inhibitor, single point] |
| Cc1nn2c(N3CCN(C)CC3)cc(C(C)(C)C)nc2c1-c1ccccc1 | inconclusive: 35.5 µM [inhibitor, single point] |
| Cc1cccc(/C=N/NC(=O)c2ccc(Br)cc2)c1 | inconclusive: 25.1 µM [inhibitor, single point] |
| O=C(Nc1cccc(-c2nc3cccnc3s2)c1)C1c2ccccc2Oc2ccccc21 | inactive |
| COc1ccccc1NS(=O)(=O)c1ccc(Br)s1 | inactive |
| Cc1ccc(S(=O)(=O)NCCC(=O)NCCc2ccc(S(N)(=O)=O)cc2)cc1C | inactive |
| COC(=O)c1sc(NC(=O)C2c3ccccc3Oc3ccccc32)c(C(=O)OC)c1C | inactive |
| CC(C)(C)NC(=O)C[C@H]1C[C@H](C(=O)N2CCOCC2)[C@@]2(CCC3CCCC3)c3[nH]c4cc(-c5ccco5)ccc4c3CCN2C1=O | inconclusive: 22.4 µM [inhibitor, single point] |
| O=C(Nc1nnc(SCc2ccc(Cl)cc2)s1)C1CC(=O)N(Cc2ccccc2)C1 (stereo not drawn) | inconclusive: 35.5 µM [inhibitor, single point] |
| COc1ccc(/C=N/NC(=O)c2ccn[nH]2)cc1COc1ccc(Cl)cc1 | inconclusive: 20 µM [inhibitor, single point] |
| CCCNc1nc2nc3ccccn3c(=O)c2cc1C(=O)NCCN1CCOCC1 | inactive |
| Cc1ccccc1Cn1c(=O)n(Cc2ccco2)c(=O)c2oc3ccccc3c21 | inactive |
| CN1CCN(C(=O)c2c(NC(=O)c3ccco3)sc3c2CCC(C(C)(C)C)C3)CC1 (stereo not drawn) | inactive |
| Cc1cc2ncc(-c3ccc(Cl)cc3)c(N)n2n1 | inactive |
| CCN(CC)S(=O)(=O)c1ccc(/C(O)=C(\C#N)c2nc3ccccc3n2C)cc1 | inconclusive: 35.5 µM [inhibitor, single point] |
| Cc1ccc(-n2cc3c(-c4cccc(Br)c4)nnc(C)c3n2)cc1 | inconclusive: 35.5 µM [inhibitor, single point] |
| O=C(c1ccccc1Br)N1CCC(c2nc3ccccc3s2)CC1 | inconclusive: 0.631 µM [inhibitor, full curve, poor fit] |

| Compound | Potency |
| --- | --- |
| CC(C)Oc1cccc(C(=O)NC(=S)NCc2cccnc2)c1 | inconclusive: 15.8 µM [inhibitor, single point] |
| O=c1cc(CN(Cc2ccccc2)Cc2ccccc2)c2c(ccc3ccccc32)o1 | inconclusive: 3.55 µM [inhibitor, partial curve, poor fit] |
| CC1(C(=O)Nc2ccc3c(c2)OCO3)CCN1C(=O)CC1CC1 (stereo not drawn) | inactive |
| COc1cc(NC(C)=O)ccc1-c1cc2ccccc2oc1=O | inconclusive: 2.82 µM [inhibitor, single point] |
| C=C(C)CN1CCN(S(=O)(=O)c2ccc(C)c(N(C)S(=O)(=O)c3ccc(C)cc3)c2C)CC1 | inconclusive: 7.94 µM [inhibitor, partial curve, poor fit] |
| COC(=O)C1=C[C@@H](C(=O)OC)[C@@H]2C3=C(C(=O)[C@]2(C)NC(=O)c2ccccc2)[C@H](C)n2c(=O)n(-c4ccccc4)c(=O)n2[C@@H]3C1 | inconclusive: 6.31 µM [inhibitor, full curve] |
| Cc1c(C(=O)Nc2cccc(F)c2)sc2nc(-c3cc4ccccc4oc3=O)[nH]c(=O)c12 | inactive |
| COc1ccc(NC(=O)c2c(NCc3cccs3)sc3c2CCCCC3)cc1 | inconclusive: 22.4 µM [inhibitor, single point] |
| CN(C1CCCCC1)S(=O)(=O)c1ccc(F)c(C(=O)Nc2ccc(C(F)(F)F)cc2)c1 | inconclusive: 15.8 µM [inhibitor, single point] |
| CC(=O)C[C@@H](O)CC(=O)[C@@H]1OC(=O)[C@@H](C)CCCCc2ccccc21 | inactive |
| O=C(Nc1cccc(-c2nn[nH]n2)c1)c1ccc(Br)s1 | inconclusive: 11.2 µM [inhibitor, single point] |
| N=c1sc2ccccc2n1-c1ccccc1 | inconclusive: 11.2 µM [inhibitor, partial curve, poor fit] |
| CCCN(CCC)C(C)C(=O)NCC1(c2ccccc2)CCCC1 (stereo not drawn) | inconclusive: 11.2 µM [inhibitor, partial curve] |
| CC1CCCCN1C(=O)c1ccc2c(c1)N(Cc1ccc(Cl)cc1)C(=O)c1ccccc1S2=O (stereo not drawn) | inconclusive: 2.51 µM [inhibitor, full curve, poor fit] |
| COc1cc(OC)cc(C(=O)NCCc2csc(-c3cccc(C)c3)n2)c1 | inconclusive: 12.6 µM [inhibitor, partial curve, poor fit] |
| CCCc1ccc(-c2c(C)sc(N)c2C#N)cc1 | inconclusive: 28.2 µM [inhibitor, single point] |
| COc1cccc(C(c2sc3nc(-c4ccco4)nn3c2O)N2CCCC2)c1 (stereo not drawn) | inactive |
| CCn1cc2nc(SCC(=O)Nc3ccc(OC)cc3OC)n(Cc3ccc(OC)cc3)c(=O)c2n1 | inactive |
| Cc1ccc(-n2cc(CCCCCCCCC(=O)O)nn2)cc1 | inconclusive: 3.16 µM [inhibitor, single point] |
| CC(C)[Si]1(C(C)C)OCC2OC(n3cnc4c(N)ncnc43)C(N)C2O[Si](C(C)C)(C(C)C)O1 (stereo not drawn) | inconclusive: 35.5 µM [inhibitor, partial curve, poor fit] |
| c1csc(-c2nc(-c3ccc(-c4ccon4)s3)no2)c1 | inconclusive: 4.47 µM [inhibitor, full curve, poor fit] |
